From ChEMBL document CHEMBL5303300, “EUbOPEN Chemogenomics Library - Multiplex” (2023)
For part of its entries the source gives two or more results. Only these are listed. An entry can have further records. Values given together repeat one measurement across runs, samples, wells, individuals or studies.

Tests used:
[1] = test system: Fibroblast; experiment: Multiplex assay against human fibroblast; type: toxicity, cell-based; conditions: number of replicates 2
Outline: (§1)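 Four dyes were applied at seeding to live cells: Hoechst33342, BioTracker Green Microtubule Cytoskeleton Dye, MitoTracker Red and Annexin V Alexa Fluor 680. Imaging after compound addition used a CQ1 microscope at 37°C and 5% CO2. CellPathfinder machine-learning gating then sorted cells into Hoechst high-intensity objects or normal cells, normal cells into healthy, pyknosed or fragmented nuclei, and pyknosed cells into mitotic or apoptotic, with tubulin, mitochondrial-mass and membrane-permeability phenotypes given as per cents of healthy-nucleus cells.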

[2] = test system: U2OS; experiment: Multiplex assay against U2OS; type: toxicity, cell-based; conditions: human, number of replicates 2; outline: as §1
[3] = 12 h, 10 µM, compound concentration 10 uM
[4] = 12 h, 1 µM, compound concentration 1 uM
[5] = 24 h, 1 µM, compound concentration 1 uM
[6] = 24 h, 10 µM, compound concentration 10 uM
[7] = 48 h, 1 µM, compound concentration 1 uM
[8] = 48 h, 10 µM, compound concentration 10 uM

SMILES	Population Fragmented Nuclei (%) [2, 4]	Total Cell Count [2, 4]	Total Cell Count [2, 3]	Total Cell Count [2, 5]	Total Cell Count [2, 6]	Total Cell Count [2, 7]	Total Cell Count [2, 8]	Population Fragmented Nuclei (%) [2, 3]	Population Mitotic Cells (%) [2, 5]	Population Fragmented Nuclei (%) [2, 6]	Population Fragmented Nuclei (%) [2, 8]	other results
CN1CCc2cc(Cl)c(O)cc2[C@@H](c2ccccc2)C1.Cl	29% and 6%	24 and 249	57 and 282	44 and 333	80 and 372	62 and 675	125 and 761	–	–	–	–	Population Pyknosed Nuclei (%) [1, 3]: 16% and 4%; Population Mitotic Cells (%) [2, 4]: 0% and 63%; Population Fragmented Nuclei (%) [2, 5]: 27% and 5%; Population Pyknosed Nuclei (%) [2, 7]: 18% and 4%
CN1CCCN(C(=O)c2cccc(-c3ccc(/C=C4/C(=O)Nc5ccc(Cl)cc54)o3)c2)CC1	–	130 and 37	–	41 and 133	–	–	–	12% and 42%	37% and 12%	5% and 37%	4% and 43%	Population Membrane Permeable-Phenotype (%) [1, 3]: 61% and 0%; Population Membrane Permeable-Phenotype (%) [2, 3]: 53% and 6%; Population Mitochondria Different-Phenotype (%) [2, 3]: 69% and 12%; Population Mitotic Cells (%) [2, 3]: 8% and 35%; Population Healthy Nuclei (%) [2, 6]: 4% and 21%; Population Membrane Permeable-Phenotype (%) [2, 6]: 83% and 0%; Population Mitochondria Different-Phenotype (%) [2, 6]: 66% and 9%; Population Mitotic Cells (%) [2, 6]: 4% and 42%; Population Membrane Permeable-Phenotype (%) [2, 8]: 96% and 26%; Population Mitochondria Different-Phenotype (%) [2, 8]: 89% and 26%; Population Mitotic Cells (%) [2, 8]: 3% and 37%
C[C@H](N)Cn1ccc2cc(F)c(Cl)cc21.O=C(O)/C=C/C(=O)O	–	262 and 45	311 and 32	48 and 355	409 and 41	99 and 813	74 and 718	–	0% and 37%	–	–	Population Fragmented Nuclei (%) [1, 5]: 51% and 16%; Population Membrane Permeable-Phenotype (%) [1, 5]: 48% and 3%; Population Tubulin-Different-Phenotype (%) [1, 5]: 54% and 13%
CN(C)C/C=C/C(=O)Nc1ccc(C(=O)Nc2cccc(Nc3ncc(Cl)c(-c4c[nH]c5ccccc45)n3)c2)cc1	–	32 and 140	62 and 239	35 and 144	69 and 229	28 and 135	216 and 57	–	16% and 5%	–	–	Population Mitochondria Different-Phenotype (%) [1, 6]: 3% and 14%; Population Membrane Permeable-Phenotype (%) [2, 5]: 36% and 8%; Population Mitotic Cells (%) [2, 7]: 15% and 3%; Population Healthy Nuclei (%) [2, 8]: 13% and 1%; Population Membrane Permeable-Phenotype (%) [2, 8]: 71% and 0%
COc1cc(OC)cc(C(=O)NNC(=O)Nc2cccc3ccccc23)c1	20% and 2%	20 and 238	186 and 56	317 and 24	247 and 63	608 and 49	91 and 485	4% and 16%	48% and 0%	–	–	Population Fragmented Nuclei (%) [1, 5]: 4% and 16%; Population Tubulin-Different-Phenotype (%) [1, 6]: 15% and 3%; Population Apoptotic (%) [2, 3]: 42% and 9%; Population Pyknosed Nuclei (%) [2, 8]: 25% and 6%
Cn1ncc(NC(=O)c2nc(-c3c(F)cccc3F)sc2N)c1N1CC[C@@H](N)[C@H](F)CC1	–	47 and 177	60 and 210	50 and 266	–	476 and 78	56 and 200	–	–	–	–	Population Tubulin-Different-Phenotype (%) [1, 7]: 19% and 6%; Population Healthy Nuclei (%) [2, 6]: 14% and 45%
Cn1cc(-n2cnc3c(NCc4nc5cc(Cl)c(Cl)cc5[nH]4)nc(N4CCOCC4)nc32)cn1	27% and 4%	47 and 174	41 and 129	199 and 41	150 and 39	186 and 39	38 and 142	46% and 3%	3% and 20%	8% and 30%	44% and 10%	Population Fragmented Nuclei (%) [1, 4]: 4% and 22%; Population Mitotic Cells (%) [2, 4]: 58% and 11%; Population Healthy Nuclei (%) [2, 3]: 14% and 68%; Population Mitochondria Different-Phenotype (%) [2, 5]: 31% and 0%; Population Healthy Nuclei (%) [2, 6]: 26% and 7%; Population Membrane Permeable-Phenotype (%) [2, 6]: 53% and 0%; Population Mitochondria Different-Phenotype (%) [2, 6]: 61% and 0%; Population Membrane Permeable-Phenotype (%) [2, 7]: 87% and 0%; Population Mitochondria Different-Phenotype (%) [2, 7]: 87% and 0%; Population Tubulin-Different-Phenotype (%) [2, 7]: 100% and 0%
Cc1cccc(S(=O)(=O)N(C)[C@H](C)CCN2CCC(C)CC2)c1.Cl	–	218 and 34	13 and 230	292 and 39	22 and 338	575 and 79	652 and 29	15% and 2%	–	22% and 1%	2% and 20%	Population Tubulin-Different-Phenotype (%) [1, 6]: 28% and 8%; Population Tubulin-Different-Phenotype (%) [1, 7]: 14% and 2%; Population Tubulin-Different-Phenotype (%) [1, 8]: 18% and 5%; Population Mitotic Cells (%) [2, 4]: 27% and 0%; Population Tubulin-Different-Phenotype (%) [2, 4]: 79% and 25%; Population Pyknosed Nuclei (%) [2, 3]: 30% and 7%; Population Tubulin-Different-Phenotype (%) [2, 5]: 78% and 25%; Population Pyknosed Nuclei (%) [2, 6]: 22% and 6%; Population Membrane Permeable-Phenotype (%) [2, 8]: 2% and 13%; Population Pyknosed Nuclei (%) [2, 8]: 5% and 27%
COc1ccc(NC(=O)c2ccc(-c3ccc(-c4noc(C)n4)cc3C)cc2)cc1OCCN(C)C.Cl	22% and 4%	31 and 173	233 and 39	37 and 222	37 and 239	50 and 354	38 and 217	–	–	–	–	Population Membrane Permeable-Phenotype (%) [1, 4]: 7% and 22%; Population Apoptotic (%) [1, 3]: 81% and 24%; Population Mitotic Cells (%) [1, 3]: 18% and 75%; Population Membrane Permeable-Phenotype (%) [1, 6]: 33% and 0%; Population Membrane Permeable-Phenotype (%) [1, 8]: 43% and 12%; Population Fragmented Nuclei (%) [2, 5]: 19% and 5%
CN(C)CC#Cc1ccc2[nH]c3c(c2c1)-c1nc(N)ncc1CCC3	–	57 and 191	30 and 302	64 and 264	35 and 317	101 and 390	52 and 428	60% and 11%	–	60% and 10%	69% and 14%	Population Apoptotic (%) [1, 3]: 38% and 10%; Population Mitotic Cells (%) [2, 4]: 0% and 61%; Population Pyknosed Nuclei (%) [2, 3]: 6% and 32%; Population Pyknosed Nuclei (%) [2, 6]: 8% and 50%; Population Pyknosed Nuclei (%) [2, 8]: 11% and 36%
COc1cc(C(=O)NC2CCN(C)CC2)ccc1Nc1ncc(C(F)(F)F)c(NCc2ccc(C)cc2N(C)S(C)(=O)=O)n1.O=CO.O=CO	–	64 and 272	52 and 213	66 and 354	60 and 209	91 and 453	55 and 207	27% and 7%	–	50% and 13%	45% and 14%	Population Membrane Permeable-Phenotype (%) [1, 6]: 23% and 3%; Population Mitochondria Different-Phenotype (%) [2, 4]: 3% and 24%
CCCNc1ccc2ncc(-c3ccncc3)n2n1	24% and 3%	29 and 241	45 and 153	42 and 328	45 and 161	60 and 620	55 and 166	40% and 9%	–	42% and 13%	47% and 11%	Population Tubulin-Different-Phenotype (%) [1, 7]: 27% and 8%; Population Fragmented Nuclei (%) [2, 5]: 21% and 2%; Population Fragmented Nuclei (%) [2, 7]: 16% and 4%; Population Membrane Permeable-Phenotype (%) [2, 8]: 38% and 11%
CN(C)CCN(Cc1ccc(-c2ccc(CNCCc3ccccc3)cc2)cc1)C(=O)CCC1CCCC1.Cl.Cl	–	34 and 203	26 and 141	252 and 43	26 and 138	50 and 357	24 and 129	–	–	19% and 5%	–	Population Membrane Permeable-Phenotype (%) [1, 3]: 50% and 0%; Population Mitochondria Different-Phenotype (%) [1, 3]: 33% and 100%; Population Mitochondria Different-Phenotype (%) [1, 6]: 0% and 33%; Population Tubulin-Different-Phenotype (%) [1, 6]: 0% and 100%; Population Membrane Permeable-Phenotype (%) [2, 7]: 29% and 8%; Population Mitochondria Different-Phenotype (%) [2, 7]: 47% and 13%; Population Healthy Nuclei (%) [2, 8]: 25% and 5%
CN[C@@H]1C[C@H]2O[C@@](C)([C@@H]1OC)n1c3ccccc3c3c4c(c5c6ccccc6n2c5c31)C(=O)NC4 [STAUROSPORINE]	–	–	–	–	–	–	–	–	–	–	34, 43, 13, 21%	Population Healthy Nuclei (%) [2, 3]: 11, 19, 8, 6%; Population Membrane Permeable-Phenotype (%) [2, 6]: 100, 85, 87, 20%
Cc1ccc2c(c1CCC(=O)O)CC[C@@H](NS(=O)(=O)c1ccc(Cl)cc1)C2 [TERUTROBAN]	4% and 36%	211 and 38	59 and 207	34 and 291	71 and 313	68 and 617	110 and 632	–	–	–	–	Population Fragmented Nuclei (%) [2, 5]: 32% and 3%; Population Fragmented Nuclei (%) [2, 7]: 22% and 2%
